Measurements taken from ChEMBL document CHEMBL5724801, “EUbOPEN Chemogenomics Library - Multiplex” (2024).
Not every entry of the source has a single result; some have several. This list holds those alone. There may be further records. The records of an entry are repeated measurements (runs, samples, wells, individuals or studies).

How the values were obtained:
Assay type in all cases: toxicity, cell-based
[1] = tested on: Fibroblast; assay: Multiplex assay against human fibroblast
In short: (§1)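 Live cells were stained at seeding with Hoechst33342, BioTracker Green Microtubule Cytoskeleton Dye, MitoTracker Red and Annexin V Alexa Fluor 680. Following compound addition, they were imaged on a CQ1 microscope at 37°C and 5% CO2 and gated by CellPathfinder machine learning into Hoechst high-intensity objects or normal cells, with normal cells split into healthy, pyknosed or fragmented nuclei and pyknosed cells into mitotic or apoptotic. Tubulin, mitochondrial-mass and membrane-permeability phenotypes are per cents of healthy-nucleus cells.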

[2] = tested on: U2OS; assay: Multiplex assay against U2OS; conditions: human; in short: as §1
[3] = tested on: HEK-293T; assay: Multiplex assay against HEK293T; conditions: human; in short: as §1
[4] = 12 h, 10 µM, compound concentration 10 uM
[5] = 48 h, 1 µM, compound concentration 1 uM
[6] = 12 h, 1 µM, compound concentration 1 uM
[7] = 24 h, 10 µM, compound concentration 10 uM
[8] = 24 h, 1 µM, compound concentration 1 uM
[9] = 48 h, 10 µM, compound concentration 10 uM

CSc1nc(NC2CCCC2)c([N+](=O)[O-])c(NC2CCCC2)n1 [GS-39783]
Population Mitochondria Different-Phenotype (%) [1, 4]: 5% and 16% | Population Membrane Permeable-Phenotype (%) [1, 5]: 1% and 23%

CN[C@@H](C)C(=O)N[C@H](C(=O)N1CCC[C@H]1C(=O)Nc1snnc1-c1ccccc1)C1CCCCC1 [GDC-0152]
Population Mitochondria Different-Phenotype (%) [1, 5]: 1% and 14% | Population Mitotic Cells (%) [2, 6]: 39% and 10% | Population Mitotic Cells (%) [2, 7]: 31% and 7%

CNC[C@H](O)c1ccc(O)c(O)c1 [EPINEPHRINE]
Population Membrane Permeable-Phenotype (%) [1, 6]: 1% and 13% | Population Membrane Permeable-Phenotype (%) [1, 4]: 1% and 12% | Population Fragmented Nuclei (%) [1, 8]: 12% and 38% | Population Hoechst High Intensity Objects (%) [3, 4]: 9% and 40% | Population Hoechst High Intensity Objects (%) [3, 7]: 8% and 39% | Population Hoechst High Intensity Objects (%) [3, 9]: 3% and 21%

Cc1ccc(C(C)(O)c2nc3ccccc3s2)c(C)c1 (configuration not stated)
Population Fragmented Nuclei (%) [3, 6]: 19% and 4% | Population Mitotic Cells (%) [2, 4]: 0% and 33% | Population Mitotic Cells (%) [2, 9]: 3% and 14%

N#Cc1cc(F)cc(-c2nc(-c3ccc(F)cn3)no2)c1
Population Membrane Permeable-Phenotype (%) [1, 6]: 2% and 15% | Population Membrane Permeable-Phenotype (%) [1, 8]: 1% and 12% | Population Tubulin-Different-Phenotype (%) [1, 8]: 18% and 58% | Population Fragmented Nuclei (%) [1, 7]: 12% and 47% | Population Mitotic Cells (%) [1, 9]: 16% and 50% | Population Mitotic Cells (%) [2, 6]: 44% and 0% | Population Fragmented Nuclei (%) [2, 7]: 32% and 9%

CSCC[C@H](NC=O)C(=O)N[C@@H](CC(C)C)C(=O)N[C@@H](Cc1ccccc1)C(=O)O
Population Mitotic Cells (%) [2, 6]: 26% and 0% | Population Mitotic Cells (%) [2, 5]: 15% and 3% | Population Membrane Permeable-Phenotype (%) [2, 9]: 4% and 80% | Population Mitochondria Different-Phenotype (%) [2, 9]: 2% and 50% | Total Cell Count [2, 9]: 362 and 41

CC[C@H](Nc1ncnc2[nH]cnc12)c1nc2cccc(F)c2c(=O)n1-c1ccccc1 [IDELALISIB]
Population Tubulin-Different-Phenotype (%) [3, 6]: 2.78% and 48.72% | Population Healthy Nuclei (%) [3, 4]: 35.27% and 8.5% | Population Pyknosed Nuclei (%) [3, 5]: 10.19% and 30.65% | Population Tubulin-Different-Phenotype (%) [3, 5]: 0.82% and 29.94% | Total Cell Count [3, 5]: 1256 and 262 | Population Tubulin-Different-Phenotype (%) [3, 9]: 12.37% and 60.42% | Population Mitochondria Different-Phenotype (%) [2, 4]: 0.34% and 20.18% | Population Tubulin-Different-Phenotype (%) [2, 4]: 12.84% and 2.75% | Population Mitochondria Different-Phenotype (%) [2, 7]: 0.83% and 22.31% | Population Mitochondria Different-Phenotype (%) [2, 9]: 0.69% and 13.95% | Total Cell Count [2, 9]: 687 and 218

O=S(=O)(c1ccccc1)c1cnc2c(N3CCNCC3)cccc2c1 [INTEPIRDINE]
Population Mitotic Cells (%) [1, 7]: 60% and 8% | Total Cell Count [2, 6]: 267 and 88 | Population Mitotic Cells (%) [2, 9]: 22% and 4%

C[C@@H]1CC(=O)Nc2cccc(-c3ccc4c(c3)c(-c3cnn(C)c3)nn4C)c2N1
Population Mitochondria Different-Phenotype (%) [1, 4]: 19% and 5% | Population Mitochondria Different-Phenotype (%) [1, 7]: 15% and 4% | Population Membrane Permeable-Phenotype (%) [1, 5]: 1% and 12% | Population Mitochondria Different-Phenotype (%) [1, 9]: 19% and 2% | Population Mitotic Cells (%) [1, 9]: 7% and 39% | Population Mitotic Cells (%) [2, 4]: 13% and 66% | Total Cell Count [2, 4]: 235 and 76

CCN1CCN(Cc2ccc(Nc3ncc(F)c(-c4cc(F)c5nc(C)n(C(C)C)c5c4)n3)nc2)CC1.CS(=O)(=O)O
Population Mitochondria Different-Phenotype (%) [1, 8]: 22.86% and 7.56% | Population Mitochondria Different-Phenotype (%) [1, 5]: 19.23% and 3.43% | Population Mitochondria Different-Phenotype (%) [1, 9]: 18.97% and 4.75% | Population Mitochondria Different-Phenotype (%) [3, 6]: 47.06% and 14.29% | Population Healthy Nuclei (%) [3, 4]: 20.8% and 5.51% | Population Pyknosed Nuclei (%) [3, 5]: 12.33% and 44.31% | Population Tubulin-Different-Phenotype (%) [3, 5]: 2.99% and 65.56% | Total Cell Count [3, 5]: 788 and 167

CSc1ccccc1N1CCN(CCCCCC(=O)NC2CCCc3ccccc32)CC1.Cl (configuration not stated)
Population Mitotic Cells (%) [1, 7]: 9% and 33% | Population Mitotic Cells (%) [1, 9]: 8% and 31% | Population Mitotic Cells (%) [2, 5]: 35% and 4%

O=C(O)c1cc2ccccc2c(Cc2c(O)c(C(=O)O)cc3ccccc23)c1O [PAMOIC ACID]
Population Fragmented Nuclei (%) [1, 4]: 7% and 24% | Population Pyknosed Nuclei (%) [1, 8]: 4% and 18% | Population Fragmented Nuclei (%) [1, 7]: 8% and 34% | Population Mitotic Cells (%) [2, 6]: 15% and 50%

Cc1noc(-c2ccc(-c3ccc(CC(=O)O)cc3)cc2)c1NC(=O)O[C@H](C)c1ccccc1Cl
Population Mitotic Cells (%) [2, 8]: 3% and 22% | Population Mitotic Cells (%) [2, 5]: 2% and 13%

O=c1cccc2n1C[C@@H]1CNC[C@H]2C1 [CYTISINICLINE]
Population Mitochondria Different-Phenotype (%) [1, 5]: 16.91% and 2.36% | Population Mitochondria Different-Phenotype (%) [1, 9]: 14.62% and 2.96% | Population Tubulin-Different-Phenotype (%) [3, 6]: 6.75% and 35.29% | Population Healthy Nuclei (%) [3, 4]: 53.52% and 15.61% | Population Tubulin-Different-Phenotype (%) [3, 4]: 4.61% and 14.81% | Total Cell Count [3, 8]: 503 and 150 | Population Pyknosed Nuclei (%) [3, 7]: 16.44% and 51.87% | Population Apoptotic (%) [3, 5]: 5.71% and 33.33% | Population Pyknosed Nuclei (%) [3, 5]: 9.18% and 34.33% | Population Tubulin-Different-Phenotype (%) [3, 5]: 1.29% and 29.03% | Total Cell Count [3, 5]: 1144 and 201 | Population Tubulin-Different-Phenotype (%) [3, 9]: 0.24% and 14.23% | Total Cell Count [3, 9]: 1475 and 355

CCCCCCNC(=O)Nc1ccc(S(=O)(=O)Nc2ccc(CCNC[C@H](O)COc3ccc(O)cc3)cc2)cc1 [L-755507]
Population Mitotic Cells (%) [2, 9]: 20% and 5%

COc1cc(C(=O)N2CC[C@@H](O)[C@@H](N)C2)cc2nc(-c3cc4ccccc4n3CC3CC3)n(C)c12.Cl
Population Mitochondria Different-Phenotype (%) [1, 8]: 5% and 20%

CC(F)(F)CN1CCOc2c(nn(-c3ccccc3Cl)c2-c2ccc(Cl)cc2)C1=O
Population Mitochondria Different-Phenotype (%) [1, 5]: 2% and 21% | Population Mitochondria Different-Phenotype (%) [1, 9]: 22% and 7%

O=C(Nc1ccccc1Cl)c1cnc2ccc(C3CCNCC3)cn12.O=C(O)C(=O)O
Population Apoptotic (%) [1, 6]: 6.9% and 26.83% | Population Fragmented Nuclei (%) [1, 4]: 10.99% and 0.43% | Population Fragmented Nuclei (%) [1, 7]: 13.14% and 1.41% | Population Apoptotic (%) [1, 5]: 10% and 35.48% | Population Membrane Permeable-Phenotype (%) [1, 9]: 8.47% and 37.37% | Population Healthy Nuclei (%) [3, 6]: 41.9% and 11.19% | Population Mitochondria Different-Phenotype (%) [3, 6]: 56.6% and 6.25% | Population Healthy Nuclei (%) [3, 4]: 27.27% and 7.43% | Population Healthy Nuclei (%) [3, 8]: 66.34% and 15.38% | Population Pyknosed Nuclei (%) [3, 5]: 12.89% and 60.87% | Population Tubulin-Different-Phenotype (%) [3, 5]: 4.77% and 52.83% | Total Cell Count [3, 5]: 1002 and 161 | Total Cell Count [3, 9]: 483 and 149

O=C(NCCNCC(O)COc1ccc(O)cc1)N1CCOCC1.O=C(NCCNCC(O)COc1ccc(O)cc1)N1CCOCC1.O=C(O)/C=C/C(=O)O (configuration not stated) [XAMOTEROL FUMARATE]
Population Membrane Permeable-Phenotype (%) [1, 6]: 1% and 16% | Population Membrane Permeable-Phenotype (%) [1, 8]: 2% and 18% | Population Tubulin-Different-Phenotype (%) [1, 5]: 21% and 65%

COc1ccc2c(c1)C(C(=O)N(Cc1ccc(N(C)C)cc1)c1ccc(C(C)C)cc1)CCC2.Cl (configuration not stated)
Population Mitotic Cells (%) [2, 5]: 20% and 6% | Population Mitotic Cells (%) [2, 9]: 26% and 7%

Cn1cnc(-c2cnc(O[C@H]3CCN(C(=O)Cc4ccc(OC(F)(F)F)cc4)C[C@H]3F)c(C(N)=O)c2)c1
Population Healthy Nuclei (%) [3, 6]: 58.82% and 18.68% | Population Healthy Nuclei (%) [3, 4]: 41.3% and 12.59% | Population Healthy Nuclei (%) [3, 7]: 60% and 19.75%

COc1c(C)cc(NC(=O)c2nn(Cc3ccc(F)cc3)c3c2CN(C(=O)c2ccc[nH]2)C[C@]3(C)C(N)=O)cc1C
Population Mitochondria Different-Phenotype (%) [1, 9]: 54% and 16%

Cl.NCCc1ccc(O)c(O)c1 [DOPAMINE HYDROCHLORIDE]
Population Tubulin-Different-Phenotype (%) [1, 4]: 14% and 44%

CN1CCC(C(=O)c2cccc(NC(=O)c3c(F)cc(F)cc3F)n2)CC1
Population Mitotic Cells (%) [2, 6]: 10% and 42%

COC[C@@H](c1ccc(C(F)(F)F)cc1)N1CCN(C2(C)CCN(C(=O)c3c(C)ncnc3C)CC2)C[C@@H]1C.O=C(O)/C=C\C(=O)O [VICRIVIROC MALEATE]
Population Mitotic Cells (%) [2, 4]: 13% and 66% | Population Mitochondria Different-Phenotype (%) [2, 8]: 3% and 14% | Population Mitotic Cells (%) [2, 8]: 22% and 6% | Total Cell Count [2, 7]: 326 and 99 | Population Mitotic Cells (%) [2, 5]: 21% and 6% | Population Mitotic Cells (%) [2, 9]: 20% and 6% | Total Cell Count [2, 9]: 437 and 140
